From patent US20090291088A1, “THERAPEUTIC COMBINATIONS OF ANTI-IGF-1R ANTIBODIES AND OTHER COMPOUNDS” (Biogen Idec MA Inc., priority 2008, published 2009)

Experiments:
[1] = biological target: T1, IGF-1R-expressing MCF7 cells (Homo sapiens, UniProt P08069); test: FACS staining of MCF7 cells with conditioned medium of chimeric antibody transfectants; type: binding; conditions: conditioned medium from transfected 293-EBNA cells
T1 construct: endogenous in cells; host or cells: MCF7 human mammary adenocarcinoma cells
Protocol: (§1) The chP2A7 heavy chain expression vector and the chP2A7 light chain expression vector were co-transfected into 293-EBNA cells and transfected cells were tested for antibody secretion and specificity. Empty vector- and hu5c8-S228P/T299A IgG4 (a molecularly cloned CD40L-specific mAb)-transfected cells served as controls. […] CHO cells were co-transfected with the chP2A7 heavy chain expression vector and the chP2A7 light chain expression vector to generate stable lines expressing chimeric P2A7-aglycosylated huIgG4, kappa mAb.
as §1, with “The ch20C8” for “The chP2A7”, “and ch20C8” for “and the chP2A7”, “the ch20C8” for “the chP2A7”, “chimeric 20C8-aglycosylated” for “chimeric P2A7-aglycosylated”
The chP1G10 heavy chain expression vector and chP1G10 light chain expression vector were co-transfected into 293-EBNA cells and transfected cells were tested for antibody secretion and specificity (empty vector- and hu5c8-S228P/T299A IgG4 (a molecularly cloned CD40L-specific mAb)-transfected cells served as controls). […]

IGF-1R = IGF-1R (Homo sapiens, UniProt P08069); test: Ligand blocking assay (RIA): 125I-IGF-1 / 125I-IGF-2 binding to immobilized IGF-1R; parameters: human IGF-1R(1-903)-Fc (denoted hIGF-1R-Fc, generated by Biogen Idec); conditions: 100 nM-0.01 nM antibody, IGF-1R-Fc
Excerpt: Ligand blocking assay (RIA). […] Insulin (Arg-Insulin, Cat #01-207) was purchased from Upstate Cell Signaling Solutions (Lake Placid, N.Y. (now part of Millipore, Concord, Mass. (USA)). ^125I-rhIGF-1 (Cat # IM172), ^125I-rhIGF-2 (Cat# IM238) and ^125I-rhInsulin (Cat# IM166) were purchased from Amersham Biosciences (Piscataway, N.J.). AffiPure goat anti-human IgG, Fcγ fragment specific antibodies (Cat #109-005-098, Jackson ImmunoResearch, West Grove, Pa.) was used for IGF-1R-Fc capture. As detection antibody, goat anti-mouse IgG HRP (Cat #1030-05, Southern Biotech Birmingham, Ala.) was used. […]
Recombinant human IGF-1R (Histidine tagged version) or IGF-1R-Fc was coated onto IMMULON2 HB (high binding) Removawell strips (Dynex Technologies, Inc., cat. #6302) diluted with carbonate coating buffer pH 9.5 to a concentration of 250 ng/well. […] The air-dried wells were counted with the Isodata Gamma Counter.
Alternatively, Fabs were evaluated by a modified capture assay, where the IGF-1R-Fc was captured using anti-human IgG immobilized to a plate. […]
The ligand blocking ability of the anti-IGF-1R antibody was determined by a solid phase RIA capture method as described in Example 3. […] After 1 hour of incubation at room temperature, the wells were washed and counted for bound radioactivity by a Gamma Counter. […] Percent (%) inhibition was calculated as =[1−(Ave.CPM with Ab)/(Ave.CPM with buffer)]×100%.

| binding to IGF-1R-expressing MCF7 cells (FACS) [1] | blocking of IGF-1 and IGF-2 binding to IGF-1R (IGF-1R) | Molecule |
| --- | --- | --- |
| bound |  | chP2A7: murine-human chimera: muP2A7 variable regions linked to aglycosylated human IgG4 and kappa constant regions; SEQ ID NO:135, 139 (antibody, Antibody chimeric heavy chain; Chimeric antibody light chain) heavy: QVQLQQSGPELVKPGASVKMSCKASGNTFTDYVINWVKQRTGQGLEWIGEIYPGNENTYYNEKFKGKATLTADKSSNTAYMQLSSLTSEDSAVYFCARGIYYYGSRTRTMDYWGQGTSVTVSSASTKGPSVFPLAPCSRSTSESTAALGCLVKDYFPEPVTVSWNSGALTSGVHTFPAVLQSSGLYSLSSVVTVPSSSLGTKTYTCNVDHKPSNTKVDKRV[human IgG4 Fc with S228P T299A (EU numbers) not written out] light: EVVLTQSPTAMAASPGEKITITCSASSTLSSNYLHWYQQKPGFSPKLLIYRTSNLASGVPGRFSGSGSGTSYSLTIGTMEAEDVATYYCQQGSSIPLTFGAGTKLELKRTVAAPSVFIFPPSDEQLKSGTASVVCLLNNFYPREAKVQWKVDNALQSGNSQESVTEQDSKDSTYSLSSTLTLSKADYEKHKVYACEVTHQGLSSPVTKSFNRGEC |
| bound with a titratable dose response |  | chP1G10: chimeric P1G10-aglycosylated huIgG4, kappa mAb; SEQ ID NO:147, 149 (antibody, Chimeric antibody heavy chain; Chimeric antibody light chain) heavy: QIQLVQSGPDLKKPGETVKISCKASGYTFTNHGMNWVKQAPGKDLKWMGWINTNTGEPTYADDFKGRFAFSLETSASTAYLQINNLKNEDTATYFCASPLYYRNGRYFDVWGAGTTVTVSSASTKGPSVFPLAPCSRSTSESTAALGCLVKDYFPEPVTVSWNSGALTSGVHTFPAVLQSSGLYSLSSVVTVPSSSLGTKTYTCNVDHKPSNTKVDKRV[human IgG4 Fc with S228P T299A (EU numbers) not written out] light: DIQMTQTTSSLSASLGDRVTISCRASQDISNYLNWYQQKPDGSVKLLIYYTSRLHSGVPSRFSGSGSGTDYSLTISNLEQEDIATYFCQQGKTLPWTFGGGTKLEIKRTVAAPSVFIFPPSDEQLKSGTASVVCLLNNFYPREAKVQWKVDNALQSGNSQESVTEQDSKDSTYSLSSTLTLSKADYEKHKVYACEVTHQGLSSPVTKSFNRGEC |
|  | block both IGF-1 and IGF-2 binding | M14-B01.G4.P.agly: full-length aglycosylated human IgG4.P version of Fab M14-B01 (antibody) heavy: EVQLLESGGGLVQPGGSLRLSCAASGFTFSNYHMAWVRQAPGKGLEWVSVISPTGGRTTYADSVKGRFTISRDNSKNTLYLQMNSLRAEDTATYYCARAGYSYGYGYFDYWGQGTLVTVSSASTKGPSVFPLAPCSRSTSESTAALGCLVKDYFPEPVTVSWNSGALTSGVHTFPAVLQSSGLYSLSSVVTVPSSSLGTKTYTCNVDHKPSNTKVDKRV[human IgG4 Fc with S228P T299A (EU numbers) not written out] light: DIQMTQFPATLSVSPGERATLSCRASQSVMRNLAWYQQKPGQPPRLLIYGASKRATGIPARFSGSGSGTAFTLTISNLEPEDFAVYYCHQRSTWPLGTFGPGTKLEAKRTVAAPSVFIFPPSDEQLKSGTASVVCLLNNFYPREAKVQWKVDNALQSGNSQESVTEQDSKDSTYSLSSTLTLSKADYEKHKVYACEVTHQGLSSPVTKSFNRGEC |
